Measured values reported in PubChem BioAssay AID686978 (National Center for Advancing Translational Sciences (NCATS), 2013).
Values joined by “and” are separate entries in the source; they are usually repeats but may differ in a detail not shown here. Equal values may be shown once. About 64,000 (15%) of roughly 420,000 compounds were called active. Inconclusive means that the source gave no clear call. Such entries were picked first, then a sample of the others. The call rests on the fitted dose curve; in most records, active means well fitted inhibition curve with a large enough effect; inconclusive means small, poorly fitted or top-dose-only effect; inactive means flat fitted curve, though single readings scatter. Potencies beside an inconclusive call are fits to weak or partial responses and may not hold up.

assay: qHTS for Inhibitors of human tyrosyl-DNA phosphodiesterase 1 (TDP1): qHTS in cells in absence of CPT; details: DT40 Tdp1-/- hTDP1 cells, no CPT, ATP luminescence, 48 h; activity change, negative = growth inhibition: at 46.2 µM (top of the series) unless noted; further: nearly all actives have a fitted effect of over 55% in size
How it was run: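 Stably hTDP1-transfected Tdp1-null chicken DT40 cells were treated with library compounds minus camptothecin and grown for at least 48 hr at 37 °C, after which cellular ATP was quantified by luminescence.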
On the % scale 0 is the no-effect control and ±100 the full control effect; potency means the concentration at half of the fitted maximal effect; tags describe the fitted curve by direction and shape.

| Compound | activity change, negative = growth inhibition | Potency |
| --- | --- | --- |
| O=C(CCc1nnc(-c2ccccc2)o1)c1ccc(Cl)cc1 | inconclusive: 1.36% [inhibitor] | – |
| O=c1[nH]c2ccccc2nc1/C=C/c1ccc(Cl)cc1 | – | active: 23.1 µM |
| CC1(C(=O)NS(=O)(=O)c2ccc(Cl)cc2)CCN1C(=O)Cc1ccc(Cl)cc1Cl (centres undefined) | – | inactive |
| COc1ccc(C(=O)N2CCC3(CC2)c2ccccc2[C@@H](NC(=O)c2ccccn2)[C@@H]3OC)c(O)c1 | – | inconclusive: 14.6 µM [inhibitor, partial curve, poor fit] |
| CN(Cc1ccccc1)C(=O)c1cccc(NC(=O)Cc2ccc(NC(=O)C3CCN(C(=O)CCc4ccccc4)CC3)cc2)c1 | – | active: 16.4 µM |
| O=C1CC(Sc2ncn[nH]2)C(=O)N1c1ccccc1 (centres undefined) | – | active: 11.6 µM |
| O=C(CNc1cccc(S(=O)(=O)N2CCCC2)c1)Nc1ccc(C(F)(F)F)cc1 | – | active: 14.6 µM |
| O=C(c1ccccc1)N(C(=O)c1ccccc1)c1ccccc1 | – | inconclusive: 18.4 µM [inhibitor, single point] |
| COC(=O)c1ccccc1NC(=O)C1COc2ccccc2O1 (centres undefined) | – | inactive |
| COc1ccc(C(c2nnnn2C2CCCC2)N2CCc3ccccc3C2)cc1OC (centres undefined) | – | inconclusive: 29.1 µM [inhibitor, single point] |
| COc1ccc(/C=C/c2c(-c3ccc(OC)cc3)oc3ccc(-c4ccc(OC)cc4)cc23)cc1 | – | inactive |
| CSc1ncccc1C(=O)Nc1cccc(S(=O)(=O)N(C)c2ccccc2)c1 | – | inconclusive: 16.4 µM [inhibitor, partial curve, poor fit] |
| COc1ccc(S(=O)(=O)N2CCC(Oc3ccc(-n4cnnn4)cc3)CC2)cc1OC | – | inconclusive: 23.1 µM [inhibitor, single point] |
| O=C(c1ccc(CN2CCc3ccccc3C2)cc1)N1CCc2ccccc2C1 | – | inconclusive: 20.6 µM [inhibitor, single point] |
| CN(Cc1ccc(Cl)cc1Cl)C(=O)C1CSC2(C)CCC(=O)N12 (centres undefined) | – | active: 16.4 µM |
| Oc1c(C(c2ccccc2Cl)N2CCCC2)sc2nc(-c3ccco3)nn12 (centres undefined) | – | inconclusive: 14.6 µM [inhibitor, partial curve, poor fit] |
| C=CCn1cccc(C(=O)Nc2ccc(N(C)C)cc2)c1=O | – | inactive |
| COCCn1c(SCc2csc(-c3ccccc3)n2)nc2ccccc21 | – | active: 18.4 µM |
| O=C(Cn1ccc2ccccc2c1=O)NCCC(=O)N1CCN(c2cccc(Cl)c2)CC1 | – | inconclusive: 20.6 µM [inhibitor, partial curve] |
| Clc1ccccc1-c1nnc2sc(-c3ccc(Br)o3)nn12 | – | inactive |
| Cc1cscc1-c1nc(NCC2CC2)nc2ccsc12 | – | inconclusive: 29.1 µM [inhibitor, single point] |
| Cc1cc(=O)oc2ccc(OC(=O)CN3C(=O)c4cccc([N+](=O)[O-])c4C3=O)cc12 | – | inactive |
| CCOC(=O)[C@]12CCC=C1N(Cc1ccc3c(c1)OCO3)C(=O)[C@H](CC(=O)NCCc1ccccc1OC)C2 | – | inconclusive: 16.4 µM [inhibitor, single point] |

| Compound | activity change, negative = growth inhibition | Potency |
| --- | --- | --- |
| CC(=O)N1CCc2c(sc(NC(=O)CN3C(=O)c4ccccc4C3=O)c2C(N)=O)C1 | – | inactive |
| CCN(CC)c1nc2c(c(=O)n(C)c(=O)n2C)n1CCCc1ccccc1 | – | active: 23.1 µM |
| COc1ccc(Cc2c(-c3ccc(C)cc3)nc3cc(C)c(Br)c(C)n23)c(C)c1 | – | inconclusive: 10.3 µM [inhibitor, partial curve] |
| COc1cccc(N/C(N)=N/c2nc(C(F)(F)F)cc(=O)[nH]2)c1 | – | inconclusive: 20.6 µM [inhibitor, single point] |
| CN1C(=O)c2ccccc2Sc2ccc(NC(=O)COc3ccc(F)cc3)cc21 | – | active: 7.31 µM |
| O=C1CCC(C(=O)N2CCCCO2)CN1Cc1cccc(F)c1 (centres undefined) | – | inactive |
| O=C(NCC(=O)N(c1cccnc1)C(C(=O)NCc1ccco1)c1ccccc1)c1ccco1 (centres undefined) | – | inactive |
| Cc1ccc(N2CC(C(=O)Nc3cccnc3)CC2=O)cc1C (centres undefined) | – | inconclusive: 6.51 µM [inhibitor, partial curve] |
| Fc1ccc(CN2CCc3nc(Nc4ccccc4)ncc3C2)cc1F | – | active: 20.6 µM |
| O=C(O)[C@H](O)c1ccccc1 | – | inactive |
| O=C(COc1ccc2c3c(c(=O)oc2c1)CCC3)NCC(O)c1ccccc1 (centres undefined) | – | inactive |
| CCN(CC)CCN(C)C(c1cc2ccccc2o1)c1nnnn1C(C)(C)C (centres undefined) | – | inconclusive: 7.31 µM [inhibitor, partial curve] |
| COc1ccccc1-c1cccc([C@@H]2C[C@H]3[C@H](CON3C)CN2C(C)=O)c1 | – | inactive |
| CN(C)c1ccc(N=Nc2ccccc2C(=O)OCC(=O)N2CCCCCC2)cc1 | – | inconclusive: 23.1 µM [inhibitor, single point] |
| COc1ccc(CCNc2ncnc3c2cnn3-c2ccc(C)cc2)cc1 | – | inconclusive: 13 µM [inhibitor, single point] |
| O=S(=O)(c1ccc(F)c(F)c1)N1CCN(S(=O)(=O)c2cccs2)CC1 | – | inactive |
| CC1CCCC(C)N1C(=O)CSc1nc2ccccc2c(=O)[nH]1 (centres undefined) | – | inconclusive: 20.6 µM [inhibitor, single point] |
| O=C(NCc1ccco1)c1ccc2c(c1)N(Cc1cccc(Cl)c1)C(=O)c1ccccc1S2(=O)=O | – | inconclusive: 29.1 µM [inhibitor, single point] |
| COc1ccccc1C1CCN(Cc2ccc(C)cc2)CC1 | – | inconclusive: 29.1 µM [inhibitor, single point] |
| COc1ccccc1N(C)S(=O)(=O)c1ccc(C(=O)Nc2cc(F)ccc2C)cc1 | – | inconclusive: 18.4 µM [inhibitor, single point] |
| COc1ccc(C2C(=O)N(C3CCCCCC3)CC(=O)N2Cc2ccc(C)cc2)cc1OC (centres undefined) | – | active: 23.1 µM |
| Cc1ccccc1OCCCCCn1ccnc1 | – | active: 16.4 µM |
| Cc1ccccc1C(=O)Nc1nnc(S(=O)(=O)N2c3ccccc3CC2C)s1 (centres undefined) | – | inconclusive: 32.6 µM [inhibitor, single point] |

| Compound | activity change, negative = growth inhibition | Potency |
| --- | --- | --- |
| COc1ccc(-c2nnc3ccc(SCC(=O)N4CCN(c5ccccc5)CC4)nn23)cc1 | – | inconclusive: 2.31 µM [inhibitor, single point] |
| CCOc1cc(N2CCOCC2)c(OCC)cc1NC(=O)CSc1cccc[n+]1[O-] | – | inconclusive: 11.6 µM [inhibitor, partial curve, poor fit] |
| Nc1nc2c(ncn2[C@@H]2O[C@H](COP(=O)(O)OP(=O)(O)OP(=O)(O)O)[C@@H](O)C2O)c(=O)[nH]1 (some centres undefined) | – | inconclusive: 6.51 µM [inhibitor, single point] |
| Cc1c(NS(=O)(=O)c2ccccc2)cc(C(C)C)c(O)c1S(=O)(=O)c1ccc(Cl)cc1 | – | inactive |
| C=CCOC(=O)C1=C(C)NC(SCC(=O)Nc2nccs2)=C(C#N)C1c1ccc(Cl)cc1 (centres undefined) | – | active: 31.6 µM |
| CCOC(=O)C1CCCN(C(=O)c2cnn(-c3nccc(-c4cc(C)sc4C)n3)c2C)C1 (centres undefined) | – | inconclusive: 20.6 µM [inhibitor, single point] |
| Cc1nc(/C(N)=N/OC(=O)c2c(-c3ccccc3Cl)noc2C)cs1 | – | inconclusive: 29.1 µM [inhibitor, single point] |
| CCCc1n[nH]c(=O)c2c1nnn2Cc1ccccc1 | – | inactive |
| O=C(NCCc1c[nH]c2ccccc12)C(=O)Nc1cc2c3c(c1)CC(=O)N3CCC2 | – | inconclusive: 16.4 µM [inhibitor, single point] |
| O=C(CNC(c1ccccc1)c1ccccc1)Nc1c(F)cccc1F | – | active: 16.4 µM |
| Cc1[nH]n(-c2ccc([N+](=O)[O-])cc2)c(=O)c1C=NCCc1c[nH]c2ccccc12 | – | inconclusive: 7.31 µM [inhibitor, partial curve] |
| CC(C)(C)c1ccc(C(=O)C[n+]2cc(Br)cc(Br)c2)cc1 | – | inconclusive: 22.4 µM [inhibitor, single point] |
| CCCC(C)C(=O)Nc1ccc(NC(C)=O)cc1 (centres undefined) | – | inactive |
| O=C1c2ccccc2C(=O)N1CCC1(O)C(c2ccccc2)=Nc2ccccc21 (centres undefined) | – | inconclusive: 11.6 µM [inhibitor, partial curve, poor fit] |
| Cn1c(=O)[nH]c(=O)c2[nH]cnc21 | – | inactive |
| C(=C\c1ccccc1)/CN1CCN(C(c2ccccc2)c2ccccc2)CC1 | – | inconclusive: 5.08 µM [inhibitor, partial curve, poor fit] and inconclusive: 20.6 µM [inhibitor, single point] |
| CC(C)C[C@H](NC(=O)c1nc[nH]c1C(=O)N[C@@H](CC(C)C)C(=O)OC(C)(C)C)C(=O)OCc1ccccc1 | – | inconclusive: 20.6 µM [inhibitor, single point] |
| Cc1ccc(C(C)(C)C)c(OCCCn2ccnc2)c1 | – | inconclusive: 25.9 µM [inhibitor, single point] |
| CN(CC(=O)Nc1ccc(Cl)cc1)C(=O)c1cccc(S(=O)(=O)N2CCN(Cc3ccccc3)CC2)c1 | – | active: 5.17 µM |
| CC(=O)Oc1ccc(-c2ccc(C(=O)OCC(=O)c3c(N)n(C)c(=O)n(C)c3=O)cc2)cc1 | – | inconclusive: 29.1 µM [inhibitor, single point] |
| Cc1ccc(C)c(OCCSc2nnc(C)c(=O)[nH]2)c1 | – | inconclusive: 29.1 µM [inhibitor, single point] |
| COc1ccc(NC(=S)NNC(=O)c2cccs2)cc1 | inconclusive: 0.435% [inhibitor] | – |
| OC(c1ccc(F)c(F)c1)c1nc(-c2ccoc2)cs1 (centres undefined) | – | inconclusive: 16.4 µM [inhibitor, single point] |
